Laboratory results taken from paper PMC10726135.
The other results are listed elsewhere or left out. At the low end of the ranking the order means little. Measured with an extract: partners may take part in the binding.

The sequences below were run against T1, HNF4alpha8 (COS-7 nuclear extract) (UniProt P41235-5) (assay: protein-binding microarray). Conditions: COS-7 nuclear extract on double-stranded Agilent 4x180k PBM; binding buffer, salt, pH and temperature not given; high values mean tight binding; double strand, one strand shown; sequences stand for … in …GCCTAGGGAGATTAGAGTATCGGTCGA.
T1 sequence: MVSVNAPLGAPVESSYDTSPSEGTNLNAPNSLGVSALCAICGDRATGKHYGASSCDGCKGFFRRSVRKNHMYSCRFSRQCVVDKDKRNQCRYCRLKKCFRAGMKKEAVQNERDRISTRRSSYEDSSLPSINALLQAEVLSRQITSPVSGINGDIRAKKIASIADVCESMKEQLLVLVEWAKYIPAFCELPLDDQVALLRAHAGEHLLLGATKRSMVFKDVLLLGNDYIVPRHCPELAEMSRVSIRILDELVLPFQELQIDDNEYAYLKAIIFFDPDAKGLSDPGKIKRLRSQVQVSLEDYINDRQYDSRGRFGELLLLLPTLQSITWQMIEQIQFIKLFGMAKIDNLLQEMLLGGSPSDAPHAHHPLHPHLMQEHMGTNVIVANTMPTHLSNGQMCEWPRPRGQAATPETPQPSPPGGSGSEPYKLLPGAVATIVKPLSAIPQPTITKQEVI

Sequence	binding signal (log2 normalized intensity)
GCATTCTGTTTCCTACTGACCTCCGACCCC	7.08
CTATTAACTTTTCCATGTCCAAAGGTCTTC	5.6
ACCGCAAATAAAAGAGGGCCCCATCATGTG	-1.3
CCTATTTGCTTGTGAATGAAAGAGACTAGT	0.943
CACCAGGTGGAGTCTCCTTGAGGGCAAAGT	4.21
ATCTTCTTTCCTGGTGCCTCCTTATCTCCC	1.45
TCGCCTTTTATTTTTCCCCTGAAATATCAT	1.92
AGAGGTCACTCAGCAATAAATACCAAAGCC	-1.16
ATTCATAAAGTTCTCTGGCAAATATCAGCA	-0.474
CAGAAGTCATGTCTCATTGCCCCTTGAGCT	3.87
TTCCAGGGATGTTTGGCAGCTGAGGATTGT	1.05
AGAGCAGACTATTATCAGCCAAAGTTCAGT	2.89
TGAGGTCAAGGCTTCTGCCCCAGACACGCT	1.13
GCGTATGAAGCTTTGACCCTGTTTTGTAAA	3.08
CCCATTTTGTCCCTCCCTGCAGCTGAAGCA	1.36
CTTTGGACTTTTGAACTAAGGCTGGAATGA	3.69
AAAATACCTGGAAGTATTTATTGAGCACAC	-0.121
CAACCAGGAGAATTTCAGTATTAATGTCAA	1.35
CCCACTCCCCCTGCTGGACACCGAGGTCCT	1.84
TTGCCCTTTGCCCAACCCTCTCCCACTCCC	4.93
TTCCAAAGGTCACCCGTATTCCTTAGCTTA	2.39
TTCCACGACTCCCCCGCTCACCCCTCCCCA	6.23
TTTTCGGAAGAACTGGTTCTGTGGAATTTG	2.1
CCCAAAAGGTCAATCTGGATTGTACTGTGT	3.55
AGTTGGAAAATATTTCTCTGAACTTTGACC	8.68

Sequence	binding signal (log2 normalized intensity)
GCTCAAAGGCGGCCCGGGTGGGGGTGGGGC	-1.36
CTTCATTCTCATCTTCTATGATAAGATCTT	0.794
TCCGCGAGGGTCCCCACCTTCCATTACCAC	0.832
TGACCTTTGTTTGGTCAAATACCTAATTGT	2.88
CCGGGGCAAACAAGGGCAACTCTAATAGCA	-1.38
TCTTTGAGAAAACTCCAAAGACATTATCAC	-0.739
GTCTTTCAGGAAGGAATAAAAGGCTGTTCT	-0.147
CACAGACAAATATTTGCTGTTACTCTAGTA	-0.102
GCACATGGCATGATCCCTGACTCATAGCTC	-0.946
TGCCTAGAGGCCTGGGAATGCCTAGGGGGA	-1.36
GCTGTATGTTCTAACCATAGGAGGCTGGTC	0.473
TGTTAGCACTCAGTCATTGCCATCTGCAAG	-1.27
TTCTAGACACCAAACACAGTTGCTGTCTAG	-0.678
CTGGGCGCTGGGAAGACAGTCTTGGGCACA	-1.32
CACTCAGCTGTGTCTACCCTTTTGCCCTTT	6.29
GGAGCGGCCTGCACCTGTTTCTGGAGAATG	-1.26
GAGTGTCAGAGGCTAAACCTAGCCCCCTTT	3.1
AGCGGGGGCAAGCCCACTCTCTGAGTCTGA	-1.29
CCCTTGGCCTACTTAGTCCAGGTTTAGCAA	-0.533
GACAGGATGGGGGTGGGAGGCTGGGAGGAG	-1.34
CAAATATTTGCCTAGGATTCTGGGAGGGGA	-1.22
CAGCACCAAGAACAAACAAAAACCAAAAAA	-1.26
AACATGTAGGTCAAAGAATGCCTGGGTCAA	1.82
TCAGTGAGCCTTGACCTTCATGCTACTGTG	2.34
CCAAAGAAGCCACAGAAGTCTTTCCCTGCC	-1.19

Sequence	binding signal (log2 normalized intensity)
AAGATTCAGAACCCATTAATTTAGCACTTA	-1.22
TTAGGTGCTGAGCAACTATAAAACAGGAAA	-1.26
TTGGACTTTGGTCATCCTTTACTTTCCCAA	6.14
GCAAATAGGATTAGGAAACCTGGTAGCGTG	-1.23
AACTTGTTTTTGATTTTGCAGGCTGATAGG	1.01
ATCAGAGTCCAGCTGTGCCCCAGTCCTTCA	1.38
AGATAAATAAATCAAGATCACTGCCTTGGA	-1.31
GCCAGCACAGGAGGCCTCTCAAAGCAGGAT	-1.37
GGGCTAGAGCTTAAAAGCCCAACACGGGCG	-1.27
TGGGCTGGGAGCTAATGAGCACATTCTTCA	-1.3
TTCCCTGTCGCTATCTTATCTGGGCCAGGT	0.392
GGACTGGGCTGGAACACAAAGAAAGCCAAA	-1.29
CTGTCGGAATTTGCCCTGTGGTCTAGCTTG	2.26
GACAGAAACCAAGCTGTCCGACTGCACACC	-1.31
GAATGTATTGAGAAGAAACCTTTGCCCAAC	3.64
ACCTTTGATCATTTGAGGGTGACACTGCTC	1.66
CTGACTGGAAGAGCCTGCAAGGGAGACCAG	-1.36
GCCTTTTACCTTGGCAGCCACTGAGGCTCT	-1.05
CACTCCCACACTGGTAACCTTTAGTCTCCA	4
GAAAGTAGTTGGGGATTGTGTAACATCTAA	-0.201
AGGTAGGGCCTACCTGCCTGAGCTATCTGT	-1.13
TATTCCATATCAGCTTTCTTTTCCAACCAT	1.18
AACAAAAAGGGCAAAGGTCAGCTCATTCCC	6.81
